# Assay results as given in PubChem BioAssay AID1460 (National Center for Advancing Translational Sciences (NCATS), 2008).
# Out of some 270,000 compounds screened, about 5,800 (2.1%) were called active. This list was built around the results that the source calls inconclusive (neither active nor inactive); the mix of calls is not that of the screen. The call rests on the fitted dose curve; in most records, active means well fitted inhibition curve with a large enough effect; inconclusive means small, poorly fitted or top-dose-only effect; inactive means flat fitted curve, though single readings scatter. Where the call is inconclusive, the potency comes from a doubtful curve fit.
# Target: Microtubule-associated protein tau (Homo sapiens) (UniProt P10636)
# Test: qHTS for Inhibitors of Tau Fibril Formation, Thioflavin T Binding; further: nearly all actives have a fitted effect of over 55% in size
# Conditions: recombinant tau K18 P301L (four-repeat tau fragment), heparin-induced fibrillization, ThT fluorescence; series mostly up to 57.4 µM; activity, negative = inhibition: at the top concentration
# Outline: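 Tau K18 P301L fragment (15 uM unlabeled plus 0.24 uM Alexa 594-labeled) in 100 mM sodium acetate pH 7 with compound, fibrillization induced by 20 uM heparin for 6 hr at 37 C. Thioflavin T (30 uM) added, fluorescence read after 1 hr (ex 450, em 510 nm).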
# On the % scale 0 is the no-effect control and ±100 the full control effect; potency means the concentration at half of the fitted maximal effect; tags describe the fitted curve by direction and shape.
# Sequence of UniProt P10636 (P10636 whole entry, looked up): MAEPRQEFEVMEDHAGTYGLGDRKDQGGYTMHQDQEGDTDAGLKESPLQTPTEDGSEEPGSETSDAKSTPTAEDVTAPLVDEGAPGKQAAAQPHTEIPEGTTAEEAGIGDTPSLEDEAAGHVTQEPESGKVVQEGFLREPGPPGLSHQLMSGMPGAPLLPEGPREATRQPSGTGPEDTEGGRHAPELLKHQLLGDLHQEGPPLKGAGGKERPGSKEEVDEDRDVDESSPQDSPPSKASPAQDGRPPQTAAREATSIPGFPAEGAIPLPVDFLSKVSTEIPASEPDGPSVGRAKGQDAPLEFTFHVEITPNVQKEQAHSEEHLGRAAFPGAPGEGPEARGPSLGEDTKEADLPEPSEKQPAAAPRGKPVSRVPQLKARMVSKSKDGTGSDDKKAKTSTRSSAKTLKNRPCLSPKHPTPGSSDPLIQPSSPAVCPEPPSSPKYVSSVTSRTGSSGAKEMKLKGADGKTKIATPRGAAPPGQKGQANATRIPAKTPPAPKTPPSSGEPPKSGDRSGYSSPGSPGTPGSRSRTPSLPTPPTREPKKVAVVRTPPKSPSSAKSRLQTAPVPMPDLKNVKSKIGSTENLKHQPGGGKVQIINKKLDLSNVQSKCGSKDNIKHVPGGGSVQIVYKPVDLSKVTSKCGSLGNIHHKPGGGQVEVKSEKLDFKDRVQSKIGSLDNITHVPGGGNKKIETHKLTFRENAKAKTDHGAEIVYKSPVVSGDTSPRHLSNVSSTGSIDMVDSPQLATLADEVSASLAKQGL
SMILES,Potency,"activity, negative = inhibition"
Cc1cccc(-c2nn3c(=O)cc(CN4CCN(C(=O)/C=C/c5ccccc5)CC4)nc3s2)c1,"inconclusive: 1.78 µM [inhibitor, full curve, poor fit]",–
Cn1c(=O)[nH]c2cc(-c3noc(-c4ccc(Br)cc4)n3)ccc21,"inconclusive: 2.24 µM [inhibitor, partial curve, poor fit]",–
Cc1ccc(N2C(N)=C(C#N)C(c3cccs3)C3=C2CC(C)(C)CC3=O)cc1 (centres undefined),active: 25.1 µM,–
COc1ccc(C2c3cc(OC)c(OC)cc3CC(=O)N2c2ccc(C)cc2)cc1 (centres undefined),–,inactive: -12.7%
C#CCNC(=O)C1=C[C@H](c2cn(C(C)=O)c3ccccc23)C[C@H](OCc2ccc(CO)cc2)O1,"inconclusive: 39.8 µM [inhibitor, single point]",–
N#C/C(=C\c1ccc(N2CCOCC2)cc1)c1ccccc1,"inconclusive: 28.2 µM [inhibitor, partial curve]",–
COC(=O)c1ccc(NC(=O)CSc2nc3ncccc3[nH]2)cc1,"inconclusive: 2.51 µM [inhibitor, full curve]",–
CCCCC/C=C\C/C=C\C/C=C\CCCCCCC(=O)NCCCC(=O)O,–,inactive: -4.52%
COc1ccc(OC)c2sc(NC(=O)C(C)C)nc12,–,inactive: -21.6%
CCC(Oc1ccccc1)C(=O)Nc1nnc(S(=O)(=O)N(CC)CC)s1 (centres undefined),"inconclusive: 1.58 µM [inhibitor, full curve]",–
CCc1ccc(NC(=O)c2cnn(-c3ccccc3)c2-n2cccc2)cc1,"inconclusive: 0.631 µM [inhibitor, partial curve]",–
Cc1ccc(OCC(=O)N2N=C(c3ccncc3)CC2(O)C(F)(F)F)cc1C (centres undefined),–,inactive: -8.74%
O=C(NCCN1CCN(c2cccc(Cl)c2)CC1)Nc1ccccc1,"inconclusive: 7.94 µM [inhibitor, partial curve, poor fit]",–
CCn1c(C)nc2cc(C(=O)N/N=C/c3cccc(O)c3O)ccc21,"inconclusive: 3.55 µM [inhibitor, partial curve]",–
O=C(Nc1cccc(S(=O)(=O)Nc2ccccc2F)c1)c1ccc2ccccc2n1,"inconclusive: 39.8 µM [inhibitor, single point]",–
CCCCNC1C(CC)C(CCC)C(C#N)(C#N)C1(C#N)C#N (centres undefined),"inconclusive: 25.1 µM [inhibitor, partial curve, poor fit]",–
CCOc1ccc(C(C)C)cc1S(=O)(=O)N1CCOCC1,–,inactive: -1.75%
O=C(CC1N=C2c3ccccc3N=C(SCc3ccc(F)cc3)N2C1=O)NCc1ccc2c(c1)OCO2 (centres undefined),"inconclusive: 12.6 µM [inhibitor, single point]",–
CCCCC(CCC(=O)O)(C(=O)OCC)c1csc(Nc2ccc(C)cc2)n1 (centres undefined),–,inactive: -6.96%
